Results from PubChem BioAssay AID588855 (National Center for Advancing Translational Sciences (NCATS), 2011).
Screen size: about 410,000 compounds; about 5,000 (1.2%) were called active. Inconclusive means that the source gave no clear call. Such entries were picked first, then a sample of the others. Calls come from the whole dose curve; as a rule, active = well fitted inhibition curve with a large enough effect; inconclusive = small, poorly fitted or top-dose-only effect; inactive = no such curve, though single readings can be large or run the other way. Potencies beside an inconclusive call are fits to weak or partial responses and may not hold up.

assay: qHTS for Inhibitors of TGF-b; conditions: HepG2 CAGA-GFP TGF-b/SMAD3 reporter, GFP fluorescence, 18 h, TGF-beta stimulated, 500 pg/mL final; series mostly up to 46.1 µM; note: nearly all actives have a fitted effect of over 65% in size
Outline: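 HEPG2 CAGA-GFP cells (1000/well, DMEM with 1% FBS) were pre-incubated 2 h at 37 degrees C, given compound by pin tool, then stimulated with TGF-beta at 500 pg/mL final for 18 h before per-cell GFP fluorescence imaging.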
Potency is the fitted concentration of half-maximal effect; tags give direction and shape of the fitted curve.

| SMILES | Potency |
| --- | --- |
| CC(=O)c1c(NCCc2ccccc2)nc(=S)n(-c2ccccc2)c1C | inconclusive: 20 µM [inhibitor, single point] |
| Cc1ccc(CN2[C@@H](c3ccccc3)COCCS2(=O)=O)cc1 | inconclusive: 31.6 µM [inhibitor, single point] |
| Cc1nnc(N2CCC(C(=O)NCCC(C)C)CC2)c2nn(-c3ccc(Cl)cc3)c(C)c12 | inconclusive: 7.08 µM [inhibitor, partial curve] |
| CCC(C(=O)N1CCN(c2ccccc2)CC1)n1c(C)c2cnn(-c3ccccc3)c(=O)c2c1C (configuration not stated) | inconclusive: 6.31 µM [inhibitor, partial curve, poor fit] |
| CCCC[C@@H]1C[C@H]1[C@@H](NC(=O)c1ccco1)c1ccc(Cl)cc1 | inconclusive: 2 µM [inhibitor, full curve, poor fit] |
| CC(OC(=O)CNC(=O)c1ccccc1F)C(=O)Nc1nc(-c2ccccc2)cs1 (configuration not stated) | inconclusive: 1.41 µM [inhibitor, full curve, poor fit] |
| COc1ccc(-n2c(C)cc(-c3cn4cccc(C)c4n3)c2C)cc1 | inconclusive: 35.5 µM [inhibitor, single point] |
| CCOC(=O)N/N=C(\c1ccccc1)C(O)c1ccccc1 (configuration not stated) | inconclusive: 3.98 µM [inhibitor, single point] |
| COc1ccc(N2CCC(CNC(=S)Nc3c(C)cc(C)cc3C)C2)cc1 (configuration not stated) | inconclusive: 35.5 µM [inhibitor, single point] |
| O=C(NCc1ccc(OC(F)(F)F)cc1)C1CC2Cn3c(nc4ccccc43)C2N1Cc1ccccc1 (configuration not stated) | inconclusive: 3.98 µM [inhibitor, full curve] |
| O=C1CCCC2=C1C(c1ccc3c(c1)OCO3)c1c([nH]n(-c3ccccc3)c1=O)N2 (configuration not stated) | inactive |
| O=C(NNS(=O)(=O)c1ccc(Cl)cc1)c1cc(-c2ccccc2)nc2ccccc12 | inconclusive: 11.2 µM [inhibitor, single point] |
| CCCCc1c(C)[nH]c2nc3ccccc3n2c1=O | inconclusive: 3.16 µM [inhibitor, single point] |
| COc1ccccc1OCC(=O)Nc1oc(-c2ccccc2)c(-c2ccccc2)c1C#N | inconclusive: 11.2 µM [inhibitor, partial curve, poor fit] |
| O=[N+]([O-])c1ccc(O)c(/C=N/NC(=S)Nc2ccc(Cl)cc2Cl)c1 | inconclusive: 2.24 µM [inhibitor, full curve, poor fit] |
| O=C(c1cccc(F)c1)N1CCC(O)(c2cccnc2)CC1 | inconclusive: 25.1 µM [inhibitor, single point] |
| COc1ccccc1NC(=O)Cn1nnc(-c2ccccc2NC(=O)c2cc3ccccc3oc2=O)n1 | inconclusive: 0.251 µM [inhibitor, full curve] |
| Cc1cccc(C2CC(=O)Nc3cc4c(cc32)OCO4)c1 (configuration not stated) | inactive |
| N#Cc1cc2c(nc1S(=O)(=O)Cc1ccccc1)CCCC2 | inconclusive: 5.62 µM [inhibitor, single point] |
| COCCNC(=O)C1CCCN(C(=O)c2nc3ccccc3s2)CC1 (configuration not stated) | inactive |
| Cc1cc(NCCCn2ccnc2)n2nc(C)c(-c3ccccc3)c2n1 | inactive |

| SMILES | Potency |
| --- | --- |
| Cc1cc2ccccc2n1CCNC(=O)c1ccc(Br)cc1 | inconclusive: 11.2 µM [inhibitor, partial curve, poor fit] |
| COc1ccccc1-c1noc(-c2ccc(NCC3CCCO3)c([N+](=O)[O-])c2)n1 (configuration not stated) | inactive |
| Cc1cc(C)c(S(=O)(=O)NCC(c2ccc(N(C)C)cc2)N2CCOCC2)c(C)c1 (configuration not stated) | inconclusive: 35.5 µM [inhibitor, partial curve, poor fit] |
| Cc1ccc2oc(=O)n(CCCOc3ccccc3Cl)c2c1 | inconclusive: 22.4 µM [inhibitor, single point] |
| CCN(CC)CCN(C(=O)c1cc2ccccc2cc1OC)c1nc2ccc(F)cc2s1 | inconclusive: 35.5 µM [inhibitor, single point] |
| CCCCN(C)CCNC(=O)CN1C(=O)CSc2ccc(S(=O)(=O)N3CCOCC3)cc21 | inconclusive: 6.31 µM [inhibitor, single point] |
| O=C(Nc1ccc2nc(-c3ccc(Br)o3)[nH]c2c1)c1cccs1 | inactive |
| N#Cc1sc(NCc2ccccn2)nc1Cl | inactive |
| CCOC(=O)CSc1nnc([C@H](C)NC(=O)OC(C)(C)C)o1 | inconclusive: 5.62 µM [inhibitor, single point] |
| COC(=O)[C@@H](Cc1c[nH]c2ccccc12)NC(=O)c1cc(=O)[nH]c2ccccc12 | inactive |
| O=C(CC(=O)c1cccc([N+](=O)[O-])c1)Nc1ccccc1Cl | inconclusive: 6.31 µM [inhibitor, single point] |
| Cc1ccc(-c2cn3c(n2)sc2cc(C(=O)NCCCc4ccccc4)ccc23)c(C)c1 | inactive |
| O=C(NCc1cccnc1)c1ccc(S(=O)(=O)N2CCOCC2)cc1 | inconclusive: 28.2 µM [inhibitor, single point] |
| COc1ccc(CNC(=O)C[C@H]2C(=O)N(Cc3ccccc3)C[C@@H]2Cc2ccccc2)cc1 | inconclusive: 17.8 µM [inhibitor, single point] |
| CCCCN(CCCNC(=O)c1cc(Nc2ccc(OC)c(OC)c2)nc2ccccc12)c1ccccc1 | inconclusive: 35.5 µM [inhibitor, single point] |
| O=c1c2ccccc2c(C=Nc2cccc(O)c2)c(O)n1-c1ccc2c(c1)OCO2 | inconclusive: 22.4 µM [inhibitor, single point] |
| CC(C)(C)c1csc(N/N=C/c2ccc(O)cc2)n1 | inconclusive: 22.4 µM [inhibitor, single point] |
| CC(C)Cn1c(SCC(=O)NCc2ccco2)nnc1-c1ccncc1 | inconclusive: 28.2 µM [inhibitor, single point] |
| CCCNC(=S)N1CCC(C(=O)c2ccc(Cl)cc2)CC1 | inconclusive: 11.2 µM [inhibitor, partial curve] |
| Cc1cc(Nc2cccc(C(F)(F)F)c2)nc2ccc(NC(=O)c3cccc(Cl)c3)cc12 | inconclusive: 17.8 µM [inhibitor, partial curve, poor fit] |
| O=C(NCCCN1CCOCC1)c1ccc2c(c1)N(Cc1cccc(Cl)c1)C(=O)c1ccccc1S2 | inconclusive: 22.4 µM [inhibitor, partial curve, poor fit] |

| SMILES | Potency |
| --- | --- |
| CCN1CCN(C(=O)C2CCN(Cc3cc(Cl)ccc3O)CC2)CC1 | inactive |
| COc1ccc(NC(C)=O)cc1NC(=O)CN1CCN(c2ccc(F)cc2)CC1 | inconclusive: 2 µM [inhibitor, full curve] |
| CCOC(=O)N1CCC(NC(=O)CSCc2nc(-c3ccc(OC)cc3)oc2C)CC1 | inactive |
| Cc1cccc(-c2ccc3[nH]c4c(c3c2)CCN2C[C@@H]([C@H](C)O)[C@@H](N(C)C(=O)Nc3ccc(F)cc3)C[C@@H]42)c1 | inconclusive: 35.5 µM [inhibitor, single point] |
| CCCCNS(=O)(=O)c1ccc(NC(=O)C2c3ccccc3Oc3ccccc32)cc1 | inconclusive: 20 µM [inhibitor, partial curve, poor fit] |
| Cc1ccc(CNC(=O)c2ccc(CS(=O)Cc3cccc(Cl)c3)o2)cc1 (configuration not stated) | inconclusive: 3.98 µM [inhibitor, partial curve, poor fit] |
| Oc1cccc(C=Nc2cccc3ccccc23)c1O | inconclusive: 20 µM [inhibitor, single point] |
| Cc1ccc(Nc2c(-c3ccccn3)nc3cc(C)ccn23)cc1 | inconclusive: 20 µM [inhibitor, partial curve, poor fit] |
| COc1ccc(CCNC(=O)CSc2cn(Cc3cccc(C)c3)c3ccccc23)cc1OC | inconclusive: 12.6 µM [inhibitor, partial curve, poor fit] |
| FC(F)(F)c1ccc(NC(=S)NCc2ccccc2)cc1 | inconclusive: 35.5 µM [inhibitor, single point] |
| CCOC(=O)C1=C[C@@H](C(C)(C)C)N(S(=O)(=O)c2ccc(C)cc2)[C@H]1c1ccc(OC)cc1 | inconclusive: 10 µM [inhibitor, partial curve, poor fit] |
| CC(=O)N1CCc2c(sc(NC(=O)C3COc4ccccc4O3)c2C(N)=O)C1 (configuration not stated) | inactive |
| O=C(CSCc1ccccc1Br)N/N=C/c1ccc(OCC(=O)N2CCCCC2)cc1 | inconclusive: 11.2 µM [inhibitor, single point] |
| Cc1ccc(Cc2c(-c3ccco3)nc3c(C)cc(Br)cn23)cc1 | inconclusive: 11.2 µM [inhibitor, partial curve, poor fit] |
| COc1ccc(C=C2SC(=S)N(CCCC(=O)Nc3ccc(C(=O)O)c(O)c3)C2=O)cc1OC | inconclusive: 6.31 µM [inhibitor, single point] |
| CCC(c1nnnn1CCOC)N(Cc1cc2cc(C)c(C)cc2[nH]c1=O)CC1CCCO1 (configuration not stated) | inconclusive: 0.794 µM [inhibitor, full curve, poor fit] |
| O=C(CSc1nc(-c2ccc(F)cc2)[nH]c1-c1ccc(F)cc1)Nc1ccc2c(c1)OCO2 | active: 7.08 µM |
| CCOC(=O)/C(=C/c1ccc(OC(=O)c2ccncc2)cc1)C(C)=O | inactive |
| COc1cc(NC(=O)CSc2ccc(-c3ccccn3)nn2)cc(OC)c1 | inconclusive: 10 µM [inhibitor, partial curve, poor fit] |
| CN(CC(=O)O)c1ccc(/C=C/c2ccnc3ccccc23)cc1 | inconclusive: 7.94 µM [inhibitor, partial curve, poor fit] |
